From the supplement of paper PMC12217912
The other results are listed elsewhere or left out. The full chains were built here from the parent and the listed change. Values near 0.05 are background.

B1: TEV protease; numbered along this chain (parent)
chain: MGESLFKGPRDYNPISSSICHLTNESDGHTTSLYGIGFGPFIITNKHLFRRNNGTLVVQSLHGVFKVKDTTTLQQHLVDGRDMIIIRMPKDFPPFPQKLKFREPQREERICLVTTNFQTKSMSSMVSDTSCTFPSGDGIFWKHWIQTKDGQCGSPLVSTRDGFIVGIHSASNFTNTNNYFTSVPKNFMELLTNQEAQQWVSGWRLNADSVLWGGHKVFMVKPEEPFQPVKEATQL

Variants of: B1
Experiment: raw area under fraction-flipped curve 0-4 h after induction (AUC4h, not background-subtracted), DNA-recorder readout of cleavage of the substrate (dimensionless); higher = more cleavage of the substrate by the protease variant
Conditions: temperature: 34 °C; time window: 0-4 h after rhamnose induction
Description: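 In vivo DNA recorder in E. coli TOP10(DE3) ΔrhaA at 34 °C. Each TEVp single-site mutant (parent TEVp 0) is paired with a single-site variant of the 7-mer TEVs (canonical ENLYFQ|S). The substrate sits between flexible linkers in a Bxb1-sfGFP-TEVs-SsrA fusion, so cleavage stabilises Bxb1 and speeds flipping of a recombination array, read by NGS. The value is the raw area under the fraction-flipped curve over 0-4 h after rhamnose induction (AUC4h), with ≥20 reads per time point. It is not background-subtracted; inactive controls average about 0.047.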
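Also: Bxb1 expression induced with 0.2% (w/v) L-rhamnose at OD600 near 0.5, cultures sampled hourly, flipped fraction per protease–substrate barcode pair counted by paired-end Illumina sequencing.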

Variant | area with substrate ENLYFAS | area with substrate ENLYFCS | area with substrate ENLYFDS | area with substrate ENLYFES | area with substrate ENLYFFS | area with substrate ENLYFGS | area with substrate ENLYFHS | area with substrate ENLYFIS | area with substrate ENLYFMS | area with substrate ENLYFNS | area with substrate ENLYFPS | area with substrate ENLYFRS | area with substrate ENLYFSS | area with substrate ENLYFTS | area with substrate ENLYFWS | area with substrate ENLYFYS | area with substrate ENLYFVS | area with substrate ENLYFKS | area with substrate ENLYFLS
MGESLFKGPRDYNPISSSICHLTNESDGHTTSLYGIGFGPFIITNKHLFRRNNGTLVVQSLHGVFKVKDTTTLQQHLVDGRDMIIIRMPKDFPPFPQKLKFREPQREERICLVTTNFQTKSMSSMVSDTSCTFPSGDGIFWTHWIQTKDGQCGSPLVSTRDGFIVGIHSASNFTNTNNYFTSVPKNFMELLTNQEAQQWVSGWRLNADSVLWGGHKVFMVKPEEPFQPVKEATQL [K142T] | 0.0433 | 0.0694 | 0.0488 | 0.0582 | 0.0685 | 0.0514 | 0.0637 | 0.0404 | 0.0623 | 0.0538 | 0.0614 | 0.0643 | 0.06 | 0.0623 | 0.0498 | 0.0549 |  |  | 
MGESLFKGPRDYNPISSSICHLTNESDGHTTSLYGIGFGPFIITNKHLFRRNNGTLVVQSLHGVFKVKDTTTLQQHLVDGRDMIIIRMPKDFPPFPQKLKFREPQREERICLVTTNFQTKSMSSMVSDTSCTFPSGDGIFWFHWIQTKDGQCGSPLVSTRDGFIVGIHSASNFTNTNNYFTSVPKNFMELLTNQEAQQWVSGWRLNADSVLWGGHKVFMVKPEEPFQPVKEATQL [K142F] | 0.0584 | 0.0423 |  | 0.0889 | 0.0673 |  | 0.0594 | 0.0565 | 0.0705 | 0.0697 | 0.06 |  | 0.0618 | 0.0678 | 0.049 | 0.0576 | 0.0564 |  | 
MGESLFKGPRDYNPISSSICHLTNESDGHTTSLYGIGFGPFIITNKHLFRRNNGTLVVQSLHGVFKVKDTTTLQQHLVDGRDMIIIRMPKDFPPFPQKLKFREPQREERICLVTTNFQTKSMSSMVSDTSCTFPSGDGIFWKHWIQTGDGQCGSPLVSTRDGFIVGIHSASNFTNTNNYFTSVPKNFMELLTNQEAQQWVSGWRLNADSVLWGGHKVFMVKPEEPFQPVKEATQL [K148G] | 0.0695 | 0.0589 |  | 0.0734 | 0.0561 | 0.0642 | 0.0702 | 0.0566 | 0.0785 | 0.0548 | 0.0501 | 0.0588 | 0.0391 |  | 0.0541 | 0.0995 | 0.0555 |  | 
MGESLFKGPRDYNPISSSICHLTNESDGHTTSLYGIGFGPFIITNKHLFRRNNGTLVVQSLHGVFKVKDTTTLQQHLVDGRDMIIIRMPKDFPPFPQKLKFREPQREERICLVTTNFQTKSMSSMVSDTSCTFPSGDGIFWKHWDQTKDGQCGSPLVSTRDGFIVGIHSASNFTNTNNYFTSVPKNFMELLTNQEAQQWVSGWRLNADSVLWGGHKVFMVKPEEPFQPVKEATQL [I145D] | 0.0602 | 0.0432 | 0.062 | 0.0555 | 0.0604 |  | 0.0495 |  | 0.0813 |  | 0.0602 |  | 0.0617 | 0.057 | 0.0492 |  | 0.0337 | 0.0399 | 
MGESLFKGPRDYNPISSSICHLTNESDGHTTSLYGIGFGPFIITNKHLFRRNNGTLVVQSLHGVFKVKDTTTLQQHLVDGRDMIIIRMPKDFPPFPQKLKFREPQREERICLVTTNFQTKSMSSMVSDTSCTFPSGDGIFWKHWIQNKDGQCGSPLVSTRDGFIVGIHSASNFTNTNNYFTSVPKNFMELLTNQEAQQWVSGWRLNADSVLWGGHKVFMVKPEEPFQPVKEATQL [T147N] | 0.0633 | 0.0589 | 0.0575 | 0.0577 | 0.0927 | 0.059 | 0.0566 | 0.0616 | 0.059 | 0.0611 | 0.0635 | 0.0616 | 0.0618 | 0.0573 |  | 0.0711 | 0.0559 | 0.0582 | 0.0869
MGESLFKGPRDYNPISSSICHLTNESDGHTTSLYGIGFGPFIITNKHLFRRNNGTLVVQSLHGVFKVKDTTTLQQHLVDGRDMIIIRMPKDFPPFPQKLKFREPQREERICLVTTNFQTKSMSSMVSDTSCTFPSGDGIFWKHWIQEKDGQCGSPLVSTRDGFIVGIHSASNFTNTNNYFTSVPKNFMELLTNQEAQQWVSGWRLNADSVLWGGHKVFMVKPEEPFQPVKEATQL [T147E] | 0.0555 | 0.0681 | 0.0576 | 0.0612 | 0.0639 |  | 0.0743 | 0.0583 |  |  | 0.0623 | 0.0624 | 0.0747 | 0.0591 | 0.048 |  | 0.0465 | 0.0527 | 0.0673
MGESLFKGPRDYNPISSSICHLTNESDGHTTSLYGIGFGPFIITNKHLFRRNNGTLVVQSLHGVFKVKDTTTLQQHLVDGRDMIIIRMPKDFPPFPQKLKFREPQREERICLVTTNFQTKSMSSMVSDTSCTFPSGDGIFWKPWIQTKDGQCGSPLVSTRDGFIVGIHSASNFTNTNNYFTSVPKNFMELLTNQEAQQWVSGWRLNADSVLWGGHKVFMVKPEEPFQPVKEATQL [H143P] | 0.0583 | 0.0567 | 0.0361 | 0.0471 | 0.0649 |  |  | 0.0492 | 0.0559 | 0.0577 | 0.0671 | 0.051 | 0.0674 | 0.0594 | 0.0511 | 0.0525 |  |  | 
MGESLFKGPRDYNPISSSICHLTNESDGHTTSLYGIGFGPFIITNKHLFRRNNGTLVVQSLHGVFKVKDTTTLQQHLVDGRDMIIIRMPKDFPPFPQKLKFREPQREERICLVTTNFQTKSMSSMVSDTSCTFPSGDGIFWKAWIQTKDGQCGSPLVSTRDGFIVGIHSASNFTNTNNYFTSVPKNFMELLTNQEAQQWVSGWRLNADSVLWGGHKVFMVKPEEPFQPVKEATQL [H143A] | 0.057 |  | 0.0527 | 0.0686 | 0.0746 | 0.0684 | 0.0631 | 0.0533 | 0.0662 | 0.0612 | 0.0559 | 0.0642 | 0.0683 | 0.0624 | 0.0485 |  | 0.0641 | 0.0646 | 0.0622
MGESLFKGPRDYNPISSSICHLTNESDGHTTSLYGIGFGPFIITNKHLFRRNNGTLVVQSLHGVFKVKDTTTLQQHLVDGRDMIIIRMPKDFPPFPQKLKFREPQREERICLVTTNFQTKSMSSMVSDTSCTFPSGDGIFWKHWIRTKDGQCGSPLVSTRDGFIVGIHSASNFTNTNNYFTSVPKNFMELLTNQEAQQWVSGWRLNADSVLWGGHKVFMVKPEEPFQPVKEATQL [Q146R] | 0.0638 |  | 0.0585 | 0.0567 | 0.0723 |  | 0.0662 | 0.064 | 0.0649 | 0.0747 | 0.0526 | 0.0564 | 0.0555 | 0.0476 | 0.0618 |  |  | 0.0468 | 
